{"source": "the supplement of paper PMC4166925", "note": "± gives the standard deviation of the averaged measurements. Over roughly 33,000 sequences, “E-score (dimensionless, -0.5 to 0.5)” has its median near -0.049; the highest 2% begin near 0.37. The list shows a part of the results.", "data": [{"tested_on": "T1, PmTbr T-box DNA-binding domain (GST fusion)", "T1 sequence": "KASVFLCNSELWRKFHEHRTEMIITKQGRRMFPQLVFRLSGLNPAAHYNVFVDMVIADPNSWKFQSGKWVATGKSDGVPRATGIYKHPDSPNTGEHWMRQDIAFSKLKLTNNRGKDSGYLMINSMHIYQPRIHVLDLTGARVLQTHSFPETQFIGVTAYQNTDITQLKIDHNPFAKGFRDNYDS", "assay": "PBM E-score of 8-mer (E-score (dimensionless, -0.5 to 0.5)); Tbr is Tbrain of the sea star Patiria miniata (Pm) or the sea urchin Strongylocentrotus purpuratus (Sp); higher = stronger binding preference; most listed sequences are background and not binding sites", "conditions": "the construct has about 5 more residues each side", "in_short": "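GST-fused Tbr T-box DNA-binding domains (the whole T-box plus about five flanking residues) were expressed in BL21 E. coli at 20 °C and purified by glutathione affinity chromatography. Universal Agilent oligonucleotide arrays were made double-stranded by primer extension, incubated with 200 nM protein in PBS (pH 7.5), then scanned and quantified. Every ungapped 8-mer was scored from probe intensities. The Universal PBM Analysis Suite gave each word an enrichment E-score, averaged over duplicate arrays.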", "values": [{"sequence": "ACAGAACC", "PBM E-score of 8-mer": "-0.0988 ± 0.0082"}, {"sequence": "TACTATAA", "PBM E-score of 8-mer": "-0.154 ± 0.066"}, {"sequence": "CAGCAACC", "PBM E-score of 8-mer": "0.013 ± 0.0026"}, {"sequence": "CGAGAGCG", "PBM E-score of 8-mer": "0.187 ± 0.0052"}, {"sequence": "AACGATGA", "PBM E-score of 8-mer": "-0.141 ± 0.014"}, {"sequence": "GTTTACGA", "PBM E-score of 8-mer": "0.0331 ± 0.0092"}, {"sequence": "ACCCATAT", "PBM E-score of 8-mer": "0.0957 ± 0.013"}, {"sequence": "ACTCGGAG", "PBM E-score of 8-mer": "0.0452 ± 0.029"}, {"sequence": "CCGCTCCG", "PBM E-score of 8-mer": "-0.262 ± 0.032"}, {"sequence": "CAGGCGCG", "PBM E-score of 8-mer": "0.3152 ± 0.00098"}, {"sequence": "AGTTCCTA", "PBM E-score of 8-mer": "-0.000805 ± 0.035"}, {"sequence": "GCCATGGC", "PBM E-score of 8-mer": "-0.312 ± 0.041"}, {"sequence": "ACAGAAGC", "PBM E-score of 8-mer": "-0.0717 ± 0.045"}, {"sequence": "CTCCCAGA", "PBM E-score of 8-mer": "-0.0343 ± 0.073"}, {"sequence": "AGCACCCA", "PBM E-score of 8-mer": "0.193 ± 0.068"}, {"sequence": "ATACGAAC", "PBM E-score of 8-mer": "-0.198 ± 0.016"}, {"sequence": "GAGGGGGA", "PBM E-score of 8-mer": "-0.131 ± 0.032"}, {"sequence": "GCCTGGGA", "PBM E-score of 8-mer": "-0.179 ± 0.0051"}, {"sequence": "ACTGATCG", "PBM E-score of 8-mer": "-0.0574 ± 0.0033"}, {"sequence": "ACGGCAGA", "PBM E-score of 8-mer": "0.05 ± 0.074"}, {"sequence": "CATCGAAC", "PBM E-score of 8-mer": "-0.0846 ± 0.014"}, {"sequence": "AAACTACA", "PBM E-score of 8-mer": "0.047 ± 0.018"}, {"sequence": "ATCATGTG", "PBM E-score of 8-mer": "-0.0614 ± 0.022"}, {"sequence": "AACTTAGT", "PBM E-score of 8-mer": "-0.0288 ± 0.05"}, {"sequence": "ATAATGCG", "PBM E-score of 8-mer": "0.0597 ± 0.019"}, {"sequence": "GGCTCCCC", "PBM E-score of 8-mer": "-0.236 ± 0.037"}, {"sequence": "CGGGATAC", "PBM E-score of 8-mer": "0.055 ± 0.02"}, {"sequence": "AATGAGAA", "PBM E-score of 8-mer": "-0.206 ± 0.07"}, {"sequence": "CCTGTACC", "PBM E-score of 8-mer": "-0.284 ± 0.025"}, {"sequence": "CCGACAAC", "PBM E-score of 8-mer": "0.187 ± 0.0075"}, {"sequence": "CCTGTCAC", "PBM E-score of 8-mer": "0.3665 ± 0.0036"}, {"sequence": "ACCCACCT", "PBM E-score of 8-mer": "0.0206 ± 0.039"}, {"sequence": "AGTCGAAT", "PBM E-score of 8-mer": "-0.207 ± 0.0076"}, {"sequence": "AACCGTTC", "PBM E-score of 8-mer": "0.114 ± 0.021"}, {"sequence": "AGGTGGGC", "PBM E-score of 8-mer": "-0.0782 ± 0.065"}, {"sequence": "CCCGAGGG", "PBM E-score of 8-mer": "-0.251 ± 0.11"}, {"sequence": "GTGAAGTA", "PBM E-score of 8-mer": "0.227 ± 0.034"}, {"sequence": "TATAACAA", "PBM E-score of 8-mer": "0.0224 ± 0.16"}, {"sequence": "ATTTCGTC", "PBM E-score of 8-mer": "-0.02 ± 0.062"}, {"sequence": "ATTGCACA", "PBM E-score of 8-mer": "0.0993 ± 0.033"}, {"sequence": "CGCACGAC", "PBM E-score of 8-mer": "0.0703 ± 0.011"}, {"sequence": "CGGGGAGC", "PBM E-score of 8-mer": "-0.154 ± 0.083"}, {"sequence": "GAGAAGTA", "PBM E-score of 8-mer": "-0.0377 ± 0.023"}, {"sequence": "ACGCACAC", "PBM E-score of 8-mer": "0.148 ± 0.083"}, {"sequence": "AGTGTGAT", "PBM E-score of 8-mer": "0.463 ± 0.0063"}, {"sequence": "ATAAGCGA", "PBM E-score of 8-mer": "-0.0867 ± 0.036"}, {"sequence": "CGTCACAG", "PBM E-score of 8-mer": "0.243 ± 0.014"}, {"sequence": "ATGCCCAA", "PBM E-score of 8-mer": "-0.143 ± 0.026"}, {"sequence": "ACGCGATC", "PBM E-score of 8-mer": "0.15 ± 0.026"}, {"sequence": "GGCTTCAC", "PBM E-score of 8-mer": "0.142 ± 0.014"}, {"sequence": "GCCGATGA", "PBM E-score of 8-mer": "-0.0983 ± 0.00081"}, {"sequence": "CGAGGACA", "PBM E-score of 8-mer": "-0.02 ± 0.014"}, {"sequence": "AGTCTGAT", "PBM E-score of 8-mer": "-0.405 ± 0.053"}, {"sequence": "GAGACACC", "PBM E-score of 8-mer": "0.357 ± 0.015"}, {"sequence": "CATATAGA", "PBM E-score of 8-mer": "-0.316 ± 0.055"}, {"sequence": "ATCTGGTG", "PBM E-score of 8-mer": "-0.0313 ± 0.047"}, {"sequence": "CTAAACGA", "PBM E-score of 8-mer": "-0.0486 ± 0.072"}, {"sequence": "CTTCTCGA", "PBM E-score of 8-mer": "-0.0103 ± 0.016"}, {"sequence": "GACCTAAC", "PBM E-score of 8-mer": "-0.00518 ± 0.0072"}, {"sequence": "AAGTGTGT", "PBM E-score of 8-mer": "0.34 ± 0.03"}, {"sequence": "GGAAAGGA", "PBM E-score of 8-mer": "-0.274 ± 0.021"}, {"sequence": "AACGCCGG", "PBM E-score of 8-mer": "0.0667 ± 0.0076"}, {"sequence": "CGTCTATA", "PBM E-score of 8-mer": "0.00289 ± 0.038"}, {"sequence": "ACAGTAGT", "PBM E-score of 8-mer": "0.0366 ± 0.0051"}, {"sequence": "GCGTAGAA", "PBM E-score of 8-mer": "-0.234 ± 0.028"}, {"sequence": "CACGACCC", "PBM E-score of 8-mer": "-0.0498 ± 0.00078"}, {"sequence": "ACTGTGTG", "PBM E-score of 8-mer": "0.264 ± 0.021"}, {"sequence": "ATTTTTAC", "PBM E-score of 8-mer": "0.00341 ± 0.1"}, {"sequence": "AACCTAGT", "PBM E-score of 8-mer": "-0.134 ± 0.038"}, {"sequence": "ATGTTGTA", "PBM E-score of 8-mer": "-0.0136 ± 0.035"}, {"sequence": "AGCTGCTG", "PBM E-score of 8-mer": "-0.0211 ± 0.086"}, {"sequence": "CCGCCGGC", "PBM E-score of 8-mer": "-0.0765 ± 0.057"}, {"sequence": "CCGTCAGA", "PBM E-score of 8-mer": "-0.193 ± 0.059"}, {"sequence": "ACACAAAA", "PBM E-score of 8-mer": "0.15 ± 0.021"}, {"sequence": "CTTTCCCC", "PBM E-score of 8-mer": "-0.0069 ± 0.077"}, {"sequence": "ACTGAAAC", "PBM E-score of 8-mer": "-0.0158 ± 0.016"}, {"sequence": "ATCTGCTA", "PBM E-score of 8-mer": "0.201 ± 0.051"}, {"sequence": "AATGCGCG", "PBM E-score of 8-mer": "0.0169 ± 0.054"}, {"sequence": "GTGGTAGA", "PBM E-score of 8-mer": "0.151 ± 0.026"}, {"sequence": "CTCGCGCA", "PBM E-score of 8-mer": "0.191 ± 0.024"}, {"sequence": "ACACGCCT", "PBM E-score of 8-mer": "0.251 ± 0.031"}, {"sequence": "CAAGGCGG", "PBM E-score of 8-mer": "-0.0298 ± 0.071"}, {"sequence": "AGAAGCTA", "PBM E-score of 8-mer": "-0.109 ± 0.0026"}, {"sequence": "ACGTTGAC", "PBM E-score of 8-mer": "0.299 ± 0.061"}, {"sequence": "AATGGCAC", "PBM E-score of 8-mer": "0.25 ± 0.027"}, {"sequence": "GTCCCCAA", "PBM E-score of 8-mer": "-0.071 ± 0.1"}]}]}
